Values marked as one replicate rest on one cluster of the flow cell; about a third of the high ones do not repeat.
Tested on: ATP
Assay: switch fluorescence ratio, 500 uM ATP over buffer (Cy3 cluster intensity, sum of 5 cycles each) (fold (ratio)); higher = stronger signal-on switching upon ATP binding; sequences stand for … in TCGTCGGCAGCGTCAGATGTGTATAAGAGACAGTTTTTTTTTTTTTTTTTTTTTTTTT…TC
Conditions: aptamer strand: ATP DNA aptamer (quencher-CACCTGGGGGAGTATTGCGGAGGAAGG + anchor), 100 nM annealed; ATP concentration: 500 uM; one replicate
How it was run: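 The fluorescence ratio divides summed target-cycle Cy3 intensity by summed buffer-cycle Cy3 intensity for each cluster and is averaged per switch-domain sequence. Cy3-labelled switching-strand clusters on a modified Illumina MiSeq flow-cell were annealed to 100 nM quencher-labelled ATP aptamer, then imaged in selection buffer and again after 15 min with 500 uM ATP at 22 °C. Five such cycles were run, with NaOH stripping and re-annealing between them, and clusters outside 100-1000 RFU were excluded.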
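Note: ATP exposure 15 min at 22 °C before imaging.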

Sequence	switch fluorescence ratio
AAGCTTAGAT	0.98
TGCGGATCGA	1.05
GTAATCCGGT	0.977
CGCGGTATCC	1.07
TCAAGTCGTA	0.998
CCCGAAATTT	0.991
CCCGGAATGG	1.06
CGGATGACTA	0.985
GGGCATTTGT	0.986
TTTCAGGAGG	1.01
CGCGATTTTC	1.51
AACATCCTGT	0.982
GCGCCTGGTG	1.9
GCGTGACTTT	0.946
ACTAAGGACT	1.05
CGTACGGACA	1.18
CGTTTCTGA	1.01
CAGCAGACAG	0.996
TGTTGCTTGA	0.991
TCTATACCTC	1.05
CCTAAAGTGT	1.06
CGGACGGCTA	1.08
GCATATGACA	0.942
CCAGAGATGT	1
CCTGCGTCCA	2.44
GGCTTTCAGT	1

Sequence	switch fluorescence ratio
AGGGGTTAGA	0.975
CTCCCTGACG	1.09
ATGGTAGGGC	0.966
TCTTCTGGTA	0.953
ATAGATGTGG	1.03
GCCATATCTA	0.911
ACATATCTAA	1.04
ATTCCGTAAG	1.16
GATTTCGTTG	0.993
AGGGCGCCAC	0.979
GGGGAGGATC	0.987
CGGTGATAG	1.01
TCTTATTTTC	1.02
CTTGCTAAC	1.26
GGTCCGGCTT	0.998
GGGGACCCCG	1.03
TCCTTTAAAC	1.05
CTACTAAGT	1.06
AGTGATTGTG	0.951
GGGCACGGGG	1.03
CAAGAGGTCA	1
TTCTAGATT	0.996
ACTTCTGTGG	0.996
TGGCTGGGGA	1.02
ATGTCAGCG	1
GGAACAATGC	2.39

Sequence	switch fluorescence ratio
AGGTCACCGT	0.97
AGTCCCTAGA	1.06
GCGAAGGCTG	0.976
TTGCCGGCGC	1.02
AGAAATCACG	1.01
AGCTCTAGGC	0.997
TCGATTGAAG	0.982
GCCCCCGGTT	1.23
GTGGTGTTAT	0.933
CCGAGATGCG	1.14
TGGTTTCTTA	0.962
GTTTCATTTA	1.01
AGTCGAGGAG	0.972
GAAAACCATG	1.04
AGGAAAATAA	1.03
CGGGTGTTGT	0.969
ATCGGCTCCG	1.04
ACTGGAAGAA	1.02
ATTTGCTAGT	0.991
ACTCGATCCT	1.01
AGACGCGAGC	1.11
AGACGCCCGT	1.01
TCCTTTCAAC	1.14
CTCCCGGAGG	1.09
ACTCTAGAGG	1
TGTTCATGGA	0.981

Sequence	switch fluorescence ratio
TCTCAT	1.05
CTCAAGGTCA	1
TAAGCTAAT	1.1
TTGCCAGTAA	0.969
ACCCGATACG	1.27
AAGATTGCAT	0.985
GCGGGTAGGT	0.968
CAGCTGCGAG	1.06
CTGAGGTGCA	1.08
TACGATCTA	1.01
CGGCTGCGGC	1.06
TGTGAGAATC	1.03
TTAACAGTAG	1
CAATATTTGA	0.969
TTTATACAGT	1.04
TTGTGAAGGA	0.999
AAGTGTGAG	1.01
AACGCTATGG	1.45
ACTGATGCGC	1.03
CAATGAGATC	0.982
GGTGGTCGTG	0.942
TCAACGATAA	1.04
GGTATCGTAA	0.985
GACTCATAAG	0.954
TATCGGGCCT	1.05
GAGACTCAGC	0.956

Sequence	switch fluorescence ratio
ACATGTCCAG	0.992
TAGACACAGT	0.983
GCGCCTTAGA	1.03
TACTGTTCTT	1
GCGGCAAAG	0.981
GAGCCTTCAT	1.08
AGAAAGCTCA	1.02
CCACACTTGA	1
AGGACACAG	0.997
GAAATCATAA	1.04
GATGTGCCCG	0.988
GAAACGTTG	0.956
ATGCCCATCT	1.03
ACTCCCGGTC	1.88
TGCGAGG	1.05
GTTACTGCGC	1.31
CATCTTAGGG	1.02
CATGCCGGCG	0.966
AACGTTTATA	1.03
CCTACGGGGA	1.36
TGACTCCTTC	1.09
GAATGCATCT	1.03
GGTAGATGGC	1.02
AAGAACTAGA	0.991
ATTTGATACA	1.01
GTCGGTGCAT	0.974

Sequence	switch fluorescence ratio
CTCTGAACGG	0.982
GGGAGGGAC	0.983
GAAACTGTGA	1.05
GGGATACTCA	1.03
GACCGAAGGG	1.11
GGGCTCGACC	1.1
TATGCACATT	1.01
GCTGGATAC	1.22
CAGCCTGCTA	1.05
TCCTCGGATA	1.47
CAAGAGGCGC	1.01
TGTTGACCGC	1.02
GGCAGCCGAC	1.01
CCCCGTTAGC	3.15
ATTTTCCCCC	1.02
TCGCGGTGTA	0.992
CCCGAGCCAG	1.06
GTTTGCGAGG	1.06
GGGCACGGGA	0.989
ATACCGTCGT	1.07
ACTTCTTGAA	1.01
TCCCCGGTCG	1.18
TTTCGGCTAG	1.11
GATCCAGAC	1.04
ATGGTAGTTT	0.975
ACGTCATTGG	1.13

Sequence	switch fluorescence ratio
GGGTGCCTCG	1.02
GTAATGAGCC	0.957
TGAGGATGGC	0.994
GATTAAACGA	0.994
TGTATCAAGA	1
ACAGGGACGT	1.05
GTATCAGCGG	0.982
AAACGTATTT	1.05
AAGTCTTGCT	0.971
AGGCCCGTAA	1.09
TATCGGTATG	0.99
GACCAAGCTA	1.17
GATCTTTATT	0.997
CGTTCTTAGG	0.949
TGCGATGTAC	1.4
AGGGGGTCA	1.02
TAGGCCCCGA	1
CGCTTTTAGT	1
GAGCAGACTT	1.1
AATGATGACG	1.04
CTCACGTCAT	1.34
CTCATAGTGA	1.01
TAGGAGTCGT	0.944
CGTGCTCCTG	1.03
CCTGGACGCA	2.41
CCAAGGTAGT	1.06

Sequence	switch fluorescence ratio
GGTCCCGGCA	0.971
TGCTCCTTT	0.997
TGATACAT	0.981
AGGCCTAGAA	1.04
TCGGTGCTAG	0.999
CAAGGATCTC	0.966
ATCCACTGTA	1.29
TCGAAGCTTA	2.28
TTACTGTTT	0.994
TCTAATAAA	1.01
GAATAGCTTA	1.02
CGACCGTTAT	1.23
GGGTCATGCG	1.03
AGGACTCTT	0.988
TGAGCCAAAC	1.05
GCACGGGTGC	1.05
GATATGTAA	1.02
AGATACCTTT	0.999
GCAGTTGGAG	0.969
